{"source": "paper PMC6149971", "about": "“In Vivo and In Vitro Activities and ADME-Tox Profile of a Quinolizidine-Modified 4-Aminoquinoline: A Potent Anti-P. falciparum and Anti-P. vivax Blood-Stage Antimalarial” (Molecules : A Journal of Synthetic Chemistry and Natural …, 2017)", "key": {"[1]": {"assay": "Maximum tolerated dose in CD1 mice"}, "[2]": {"molecular_target": "T1, hERG (Homo sapiens, UniProt Q12809)", "T1 construct": "expressed in transfected cells", "T1 sequence (Q12809 whole entry)": "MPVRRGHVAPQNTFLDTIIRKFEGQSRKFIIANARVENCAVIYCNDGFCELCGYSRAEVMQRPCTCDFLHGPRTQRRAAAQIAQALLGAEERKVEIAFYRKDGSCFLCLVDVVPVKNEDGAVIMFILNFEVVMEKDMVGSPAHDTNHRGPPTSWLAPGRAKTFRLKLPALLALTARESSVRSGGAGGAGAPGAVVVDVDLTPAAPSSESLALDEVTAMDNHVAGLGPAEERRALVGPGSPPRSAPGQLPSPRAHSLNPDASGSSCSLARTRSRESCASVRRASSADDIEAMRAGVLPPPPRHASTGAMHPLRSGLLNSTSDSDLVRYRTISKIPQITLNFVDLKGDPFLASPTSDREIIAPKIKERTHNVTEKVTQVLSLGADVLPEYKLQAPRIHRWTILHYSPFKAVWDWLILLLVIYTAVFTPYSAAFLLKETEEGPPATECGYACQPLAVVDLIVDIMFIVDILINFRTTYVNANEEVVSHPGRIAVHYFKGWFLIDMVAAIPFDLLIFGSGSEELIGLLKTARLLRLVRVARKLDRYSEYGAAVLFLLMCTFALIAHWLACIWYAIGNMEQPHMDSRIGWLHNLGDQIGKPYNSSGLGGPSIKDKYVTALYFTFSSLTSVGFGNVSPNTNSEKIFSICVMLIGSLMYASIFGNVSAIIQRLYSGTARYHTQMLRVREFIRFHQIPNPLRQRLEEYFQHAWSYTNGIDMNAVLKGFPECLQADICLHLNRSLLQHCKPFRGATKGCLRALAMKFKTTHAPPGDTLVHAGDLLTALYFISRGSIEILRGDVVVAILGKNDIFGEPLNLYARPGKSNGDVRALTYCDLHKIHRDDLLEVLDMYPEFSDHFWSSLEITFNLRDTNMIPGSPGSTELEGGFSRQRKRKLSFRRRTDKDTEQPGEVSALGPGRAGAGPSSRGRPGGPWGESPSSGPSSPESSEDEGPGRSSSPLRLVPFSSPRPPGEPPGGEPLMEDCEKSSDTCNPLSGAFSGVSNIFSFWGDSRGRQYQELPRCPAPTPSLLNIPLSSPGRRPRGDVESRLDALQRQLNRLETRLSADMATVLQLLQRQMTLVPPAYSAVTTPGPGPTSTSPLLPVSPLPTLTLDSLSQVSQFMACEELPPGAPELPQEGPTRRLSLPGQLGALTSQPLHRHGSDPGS", "assay": "hERG [3H]-astemizole radioligand binding assay", "description": "[^3H]-astemizole (PerkinElmer ITALIA Spa, Milan, Italy) radioligand binding assays were performed in HEK293 cells membranes stably transfected with the hERG (U04270); non-specific binding was evaluated in the presence of an excess of 10 µM cold astemizole. Experiments were performed at 22 °C for 60 min in triplicate and compounds tested in a range from 0.03 µM to 30 µM. Two separate experiments were performed and data analyzed with non-linear fitting using a four-parameter logistic."}, "[3]": {"tested_on": "P. falciparum FCR1 (CQ-R)", "assay": "In vitro chemosensitivity assay (pLDH), FCR1 strain", "assay_type": "cell-based", "settings": "Plasmodium falciparum; 72 h incubation, pLDH method, mean of 3 experiments"}, "[4]": {"molecular_target": "CYP2D6 (Homo sapiens, UniProt P10635)", "sequence (P10635 whole entry)": "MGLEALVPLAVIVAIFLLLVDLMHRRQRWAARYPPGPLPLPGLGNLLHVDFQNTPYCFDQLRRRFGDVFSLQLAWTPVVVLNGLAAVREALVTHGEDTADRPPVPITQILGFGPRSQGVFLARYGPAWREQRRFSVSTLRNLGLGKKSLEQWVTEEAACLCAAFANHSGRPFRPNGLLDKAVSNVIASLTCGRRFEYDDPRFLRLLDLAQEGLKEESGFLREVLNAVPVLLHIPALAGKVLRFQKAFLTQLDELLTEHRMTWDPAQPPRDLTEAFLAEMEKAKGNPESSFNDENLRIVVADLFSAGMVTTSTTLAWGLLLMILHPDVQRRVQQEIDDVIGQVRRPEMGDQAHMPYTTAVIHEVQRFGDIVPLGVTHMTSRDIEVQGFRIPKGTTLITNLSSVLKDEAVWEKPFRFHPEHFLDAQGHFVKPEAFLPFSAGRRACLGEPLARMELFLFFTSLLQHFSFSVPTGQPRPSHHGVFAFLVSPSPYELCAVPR", "assay": "in vitro"}, "[5]": {"tested_on": "P. falciparum W-2 (CQ-R)", "assay": "Combination with dihydroartemisinin (isobologram), W-2", "assay_type": "cell-based", "settings": "additive activity", "description": "Figure 2 Isobologram analysis of the antimalarial activity of (−)-AM1 in combination with dihydroartemisinin (DHA) against D10 chloroquine-sensitive (CQ-S) (A) or W2 chloroquine-resistant (CQ-R) (B) P. falciparum strains. […]. DHA fractional IC50 values were calculated by dividing the IC50 of DHA combined with (−)-AM1 or CQ, respectively, by the IC50 of DHA alone, and plotted on the horizontal axis. The corresponding fractional (−)-AM1 or CQ IC50 values were calculated by dividing each fixed concentration by the IC50 of the (−)-AM1 or CQ alone, and plotted on the vertical axis. An isobologram close to the diagonal indicates an additive effect.\nThe antimalarial activity of (−)-AM1 was assayed in combination with dihydroartemisinin (DHA) against W-2 (CQ-R) or D10 (CQ-S) strains of P. falciparum by potentiation tests as previously described. CQ was used as a control. Isobolograms were constructed by plotting a pair of fractional IC50 values for each combination of (−)-AM1 or CQ with DHA [40].\nAn isobologram close to the diagonal indicates an additive effect."}, "[6]": {"tested_on": "P. yoelii", "assay": "Standard four-day suppressive test, P. yoelii", "assay_type": "in vivo", "settings": "CD1 mice, oral, once a day for four days, parasitaemia on day 4", "description": "Groups of five CD1 mice were inoculated i.v. with 4 × 10^6 infected erythrocytes/mice. The compound, dissolved in standard suspending formula (SSV) (0.5% sodium carboxymethylcellulose, 0.5% benzyl alcohol, 0.4% Tween 80, 0.9% NaCl), was administered orally, once a day for a period of four days, starting two hours post-infection. […] Parasitaemia was determined by microscopic examination of Giemsa-stained blood films taken on day four, processed using MICROSOFT® EXCEL spreadsheets (Microsoft Corp., Redmond, WA, USA), and expressed as percentages of inhibition from the arithmetic mean parasitaemias of each group in relation to the untreated group. ED50 and ED90 values were calculated by GraphPad Prism 6 (GraphPad Software Inc, La Jolla, CA, USA)."}}, "data": [{"compound": "Clc1ccc2c(NC[C@@H]3CCCN4CCCC[C@H]34)ccnc2c1", "note": "[(−)-AM1, 7-chloro-N-(((1S,9aR)-octahydro-1H-quinolizin-1-yl)methyl)quinolin-4-amine]", "values": [{"measurement": "MTD", "setting": "[1]; CD1, mouse, in vivo, ip", "value": "> 100", "unit": "mg/kg"}, {"measurement": "toxic clinical signs or mortality", "setting": "[1]; CD1 mice, up to 100 mg/kg i.p.", "value": "No toxic clinical signs or mortality"}, {"measurement": "Ki", "setting": "[2]", "value": "500 to 800", "unit": "nM"}, {"measurement": "IC50", "setting": "[3]", "value": 32.9, "unit": "nM"}, {"measurement": "inhibition at 3 µM", "setting": "[4]", "value": "74.4 ± 3.5", "unit": "%"}, {"measurement": "FIC in combination with DHA", "setting": "[5]", "value": "< 2"}, {"measurement": "P. yoelii ED90 (95% CI)", "setting": "[6]", "value": "4.95 (3.08–7.94) mg/kg"}, {"measurement": "ED50", "setting": "[6]; Plasmodium yoelii, 96 h, read-out: P. yoelii ED50 (95% CI)", "value": 1.55, "unit": "mg/kg"}]}]}
